Assay results taken from article PMC7744066.
Where a chain is given by its changes, count along the chain named. In names and notes the source's numbering stands. Where two headings read alike, the source gives them in different places. No constants are given. Whether binding was seen depends on the method and setting. For part of these data: In cells and extracts the contact can be indirect. Some results given as binding are weak or reduced against the parent protein; the word gives no strength. For part of these data: Tags and fused reporters may be left off the sequences shown. Values belong to the molecule of their own block, whether it stands above or below them.

Sequences of proteins named here, by UniProt entry; tags and fusion partners are left off. A change or cut given only in a name is not applied to a line headed by its entry.
UniProt P31749: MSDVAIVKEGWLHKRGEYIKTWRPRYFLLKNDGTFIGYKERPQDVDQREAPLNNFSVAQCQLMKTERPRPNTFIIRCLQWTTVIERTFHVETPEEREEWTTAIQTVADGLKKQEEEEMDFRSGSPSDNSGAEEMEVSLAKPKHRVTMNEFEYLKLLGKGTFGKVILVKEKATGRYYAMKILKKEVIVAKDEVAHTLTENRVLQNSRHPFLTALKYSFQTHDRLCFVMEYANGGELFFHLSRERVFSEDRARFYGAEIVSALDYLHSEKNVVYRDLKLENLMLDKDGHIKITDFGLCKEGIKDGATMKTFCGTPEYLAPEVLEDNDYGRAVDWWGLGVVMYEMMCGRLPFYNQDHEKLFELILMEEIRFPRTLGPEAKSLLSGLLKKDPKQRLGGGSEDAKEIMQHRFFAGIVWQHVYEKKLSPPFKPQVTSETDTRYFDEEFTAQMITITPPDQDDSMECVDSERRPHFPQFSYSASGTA
UniProt P31750: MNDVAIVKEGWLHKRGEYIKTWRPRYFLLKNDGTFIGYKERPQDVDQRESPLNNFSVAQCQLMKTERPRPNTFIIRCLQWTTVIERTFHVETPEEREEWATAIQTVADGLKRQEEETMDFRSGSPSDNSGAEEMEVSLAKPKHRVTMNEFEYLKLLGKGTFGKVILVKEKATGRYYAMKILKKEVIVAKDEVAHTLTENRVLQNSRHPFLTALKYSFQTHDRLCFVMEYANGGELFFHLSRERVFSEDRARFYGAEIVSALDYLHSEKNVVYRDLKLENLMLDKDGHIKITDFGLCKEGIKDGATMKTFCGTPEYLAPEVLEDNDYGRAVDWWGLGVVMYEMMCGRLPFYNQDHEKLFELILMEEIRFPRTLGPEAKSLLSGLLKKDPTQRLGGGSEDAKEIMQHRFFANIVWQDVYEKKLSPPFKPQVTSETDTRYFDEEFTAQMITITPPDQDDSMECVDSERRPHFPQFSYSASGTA
UniProt P31751: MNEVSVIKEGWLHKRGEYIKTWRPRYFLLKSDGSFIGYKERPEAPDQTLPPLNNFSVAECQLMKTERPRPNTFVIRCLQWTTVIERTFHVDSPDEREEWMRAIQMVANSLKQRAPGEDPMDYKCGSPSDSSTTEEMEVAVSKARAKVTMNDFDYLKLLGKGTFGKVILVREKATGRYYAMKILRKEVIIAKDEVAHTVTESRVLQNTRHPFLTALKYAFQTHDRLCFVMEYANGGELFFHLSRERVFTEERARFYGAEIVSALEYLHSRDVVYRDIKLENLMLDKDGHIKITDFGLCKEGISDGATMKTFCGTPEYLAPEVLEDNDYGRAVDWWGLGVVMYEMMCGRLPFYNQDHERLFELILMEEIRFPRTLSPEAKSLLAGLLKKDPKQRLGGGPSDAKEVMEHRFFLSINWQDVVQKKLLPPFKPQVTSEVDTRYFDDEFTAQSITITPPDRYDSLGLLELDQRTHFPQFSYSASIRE

Tests used:
Flag-Aldob [1] = molecular target: T1, Flag-Aldob (UniProt P05062); assay: co-IP; lysates of Huh7 cells transfected with the indicated constructs (and siRNAs) or of LM3-Aldob cells; anti-Flag or anti-Myc affinity gel or anti-Akt1 antibody with Protein A/G beads, overnight at 4°C, washed 4 times; in some panels cells serum-starved then 0.1 μM insulin or 100 ng/ml EGF, or MK2206 (1 μM) for 24 hours
T1 sequence: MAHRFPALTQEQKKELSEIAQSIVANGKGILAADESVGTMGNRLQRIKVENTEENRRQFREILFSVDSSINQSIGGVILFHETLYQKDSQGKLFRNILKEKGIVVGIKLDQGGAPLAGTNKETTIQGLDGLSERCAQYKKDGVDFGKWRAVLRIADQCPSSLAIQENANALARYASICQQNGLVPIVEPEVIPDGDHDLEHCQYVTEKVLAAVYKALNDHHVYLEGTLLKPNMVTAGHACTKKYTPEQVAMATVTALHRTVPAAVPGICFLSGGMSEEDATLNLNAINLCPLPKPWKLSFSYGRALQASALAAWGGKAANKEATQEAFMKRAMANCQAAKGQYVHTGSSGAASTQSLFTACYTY

[2] = molecular target: T2, Aldob, ectopically expressed in Huh7 (tag not told for the experiment) (UniProt P05062); assay: as above
T2 sequence: T1 sequence

[3] = molecular target: T3, Aldob stably expressed in LM3 cells (LM3-Aldob) (UniProt P05062); assay: as above
T3 sequence: T1 sequence

Myc-Akt1 = Myc-Akt1 (UniProt P31749); assay: co-IP; IP analysis with whole cell lysate of Myc-Akt1-transfected Huh7 cells and recombinant His-Aldob (WT, point mutants or truncated mutants); only the binder purified
[4] = molecular target: Akt1, endogenous in mouse liver (mouse (endogenous in liver tissue)) (UniProt P31750); assay: co-IP; endogenous proteins in liver tissue lysates of WT and ALDOB KO mice; anti-Aldob or anti-Akt1 antibody overnight at 4°C, Protein A/G Sepharose beads, IgG as negative control
[5] = molecular target: Akt1, endogenous in human liver tissue (human (endogenous in liver tissue)) (UniProt P31749); assay: co-IP; endogenous proteins in lysates of 2 pairs of human HCC tumor and adjacent normal liver tissues; anti-Aldob and anti-Akt1 IP, IgG as negative control
GST-Akt1 = GST-Akt1 (UniProt P31749); assay: pull-down; GST pull-down: recombinant GST-Akt1 or GST incubated with His-Aldob in binding buffer (25 mM Tris-HCl, 200 mM NaCl, 1 mM EDTA, 0.5% NP-40, BSA, 1 mM DTT, pH 7.3), Glutathione Sepharose 4B overnight; both purified
Flag-Aldob [6] = molecular target: T1, Flag-Aldob; assay: co-IP; lysates of Huh7 cells transfected with the indicated constructs (and siRNAs) or of LM3-Aldob cells; anti-Flag or anti-Myc affinity gel or anti-Akt1 antibody with Protein A/G beads, overnight at 4°C, washed 4 times; in some panels cells serum-starved then 0.1 μM insulin or 100 ng/ml EGF, or MK2206 (1 μM) for 24 hours; remark: listed apart in the source

- binding (Flag-Aldob [1]): binds
Molecule: Akt1-S473A (from UniProt P31749 1-480)

- binding (Flag-Aldob [1]): binds
Molecule: Akt1, endogenous in Huh7 cells (from UniProt P31749 1-480)

- binding [3]: binds
Molecule: Akt1, endogenous in LM3 cells (from UniProt P31749 1-480)

- binding [4]: binds
B5: aldolase B (Aldob), endogenous in mouse liver (protein, UniProt Q91Y97 1-364)
chain: MAHRFPALTPEQKKELSEIAQRIVANGKGILAADESVGTMGNRLQRIKVENTEENRRQFRELLFSVDNSISQSIGGVILFHETLYQKDSQGNLFRNVLKEKGIVVGIKLDQGGAPLAGTNKETTIQGLDGLSERCAQYKKDGVDFGKWRAVLRIADQCPSSLAIQENANALARYASICQQNGLVPIVEPEVLPDGDHDLEHCQYVSEKVLAAVYKALNDHHVYLEGTLLKPNMVTAGHACTKKYTPEQVAMATVTALHRTVPAAVPGICFLSGGMSEEDATLNLNAINRCPLPRPWKLSFSYGRALQASALAAWGGKAANKKATQEAFMKRAMANCQAAQGQYVHTGSSGAAATQSLFTASYTY

- binding [5]: binds
B6: aldolase B (Aldob), endogenous in human liver tissue (protein, UniProt P05062 1-364)
chain: T1 sequence

- binding (Myc-Akt1): binds
- binding (GST-Akt1): binds
B7: His-Aldob (protein, UniProt P05062 1-364)
chain: T1 sequence

- binding (Myc-Akt1): no binding
B8: His-Aldob a.a. 1-155 (domain or fragment, UniProt P05062 1-155)
chain: MAHRFPALTQEQKKELSEIAQSIVANGKGILAADESVGTMGNRLQRIKVENTEENRRQFREILFSVDSSINQSIGGVILFHETLYQKDSQGKLFRNILKEKGIVVGIKLDQGGAPLAGTNKETTIQGLDGLSERCAQYKKDGVDFGKWRAVLRIA

More lines, now with the values behind:

Molecule: Akt1-T308A (from UniProt P31749 1-480)
- binding (Flag-Aldob [1]): binds

Molecule: Myc-Akt1 (from UniProt P31749 1-480)
- binding (Flag-Aldob [1]): binds

Molecule: Akt2, ectopically expressed in Huh7 (from UniProt P31751 1-481)
- binding [2]: binds

B1: His-Aldob R304A (protein, UniProt P05062 1-364)
chain: T1 sequence with R304A
- binding (Myc-Akt1): binds weakly

B2: His-Aldob R46A (protein, UniProt P05062 1-364)
chain: T1 sequence with R46A
- binding (Myc-Akt1): binds

B3: His-Aldob K147A (protein, UniProt P05062 1-364)
chain: T1 sequence with K147A
- binding (Myc-Akt1): binds

B4: His-Aldob R149A (protein, UniProt P05062 1-364)
chain: T1 sequence with R149A
- binding (Myc-Akt1): binds

B9: His-Aldob a.a. 1-240 (domain or fragment, UniProt P05062 1-240)
chain: MAHRFPALTQEQKKELSEIAQSIVANGKGILAADESVGTMGNRLQRIKVENTEENRRQFREILFSVDSSINQSIGGVILFHETLYQKDSQGKLFRNILKEKGIVVGIKLDQGGAPLAGTNKETTIQGLDGLSERCAQYKKDGVDFGKWRAVLRIADQCPSSLAIQENANALARYASICQQNGLVPIVEPEVIPDGDHDLEHCQYVTEKVLAAVYKALNDHHVYLEGTLLKPNMVTAGHAC
- binding (Myc-Akt1): no binding

B10: phosphoinositide-dependent kinase 1 (PDK1) (protein, UniProt O15530 1-556)
chain: MARTTSQLYDAVPIQSSVVLCSCPSPSMVRTQTESSTPPGIPGGSRQGPAMDGTAAEPRPGAGSLQHAQPPPQPRKKRPEDFKFGKILGEGSFSTVVLARELATSREYAIKILEKRHIIKENKVPYVTRERDVMSRLDHPFFVKLYFTFQDDEKLYFGLSYAKNGELLKYIRKIGSFDETCTRFYTAEIVSALEYLHGKGIIHRDLKPENILLNEDMHIQITDFGTAKVLSPESKQARANSFVGTAQYVSPELLTEKSACKSSDLWALGCIIYQLVAGLPPFRAGNEYLIFQKIIKLEYDFPEKFFPKARDLVEKLLVLDATKRLGCEEMEGYGPLKAHPFFESVTWENLHQQTPPKLTAYLPAMSEDDEDCYGNYDNLLSQFGCMQVSSSSSSHSLSASDTGLPQRSGSNIEQYIHDLDSNSFELDLQFSEDEKRLLLEKQAGGNPWHQFVENNLILKMGPVDKRKGLFARRRQLLLTEGPHLYYVDPVNKVLKGEIPWSQELRPEAKNFKTFFVHTPNRTYYLMDPSGNAHKWCRKIQEVWRQRYQSHPDAAVQ
- binding (Flag-Aldob [6]): no binding

B11: regulatory subunit of PP2A (PP2A-B55α) (protein, UniProt P63151 1-447)
chain: MAGAGGGNDIQWCFSQVKGAVDDDVAEADIISTVEFNHSGELLATGDKGGRVVIFQQEQENKIQSHSRGEYNVYSTFQSHEPEFDYLKSLEIEEKINKIRWLPQKNAAQFLLSTNDKTIKLWKISERDKRPEGYNLKEEDGRYRDPTTVTTLRVPVFRPMDLMVEASPRRIFANAHTYHINSISINSDYETYLSADDLRINLWHLEITDRSFNIVDIKPANMEELTEVITAAEFHPNSCNTFVYSSSKGTIRLCDMRASALCDRHSKLFEEPEDPSNRSFFSEIISSISDVKFSHSGRYMMTRDYLSVKIWDLNMENRPVETYQVHEYLRSKLCSLYENDCIFDKFECCWNGSDSVVMTGSYNNFFRMFDRNTKRDITLEASRENNKPRTVLKPRKVCASGKRKKDEISVDSLDFNKKILHTAWHPKENIIAVATTNNLYIFQDKVN
- binding (Flag-Aldob [6]): no binding
